# Data taken from the supplement of paper PMC9446081.
# The campaign covered roughly 39,000 compounds. About 220 (0.56%) showed activity. The list shows a part of the results.
# System: Escherichia coli K-12 BW25113
# Assay: relative growth (OD600 normalised to plate interquartile mean) (fraction); higher = less growth inhibition, active = 0.2 or less
# Settings: 50 µM; LB; incubation time: overnight (16-24 h)
# 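Also: static incubation at 37 °C against the wild-type strain, values averaged over two biological replicates.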
row,SMILES,relative growth
1,C[C@H](CO)N1C[C@H](C)[C@@H](CN(C)Cc2ccc(-c3ccccc3)cc2)Oc2ccc(NC(=O)Cc3cn(C)c4ccccc34)cc2C1=O,inactive: 0.981
2,COC(=O)[C@@H](Cc1ccc(-n2cc(COc3ccccc3/C=C(C)/C=C/C(=O)NO)nn2)cc1)N1CC(/C=C/C2CC2)=C[C@H]1[C@H](O)Cc1ccccc1,inactive: 1.01
3,COc1ccccc1S(=O)(=O)N1C[C@@H](O)COC[C@H]2O[C@H](CC(=O)O)CC[C@@H]21,inactive: 1.01
4,C[C@@H]1CN([C@H](C)CO)C(=O)Cc2cc(NC(=O)CCCCCC(=O)Nc3ccccc3N)ccc2O[C@H]1CN(C)C(=O)Nc1cccc2ccccc12,inactive: 0.963
5,CS(=O)(=O)SCCN,inactive: 0.952
6,C[C@H](CO)N1C[C@H](C)[C@H](CN(C)C(=O)Nc2ccc3c(c2)OCO3)OCCCC[C@H](C)Oc2ccc(NC(=O)CCC(F)(F)F)cc2C1=O,inactive: 1.02
7,C[C@H]1CN([C@@H](C)CO)C(=O)c2cc(NC(=O)c3ccncc3)ccc2O[C@H]1CN(C)S(=O)(=O)c1cccs1,inactive: 1.02
8,C[C@H](CO)N1C[C@H](C)[C@H](CN(C)Cc2ccc(C(=O)Nc3ccccc3N)cc2)Oc2ccc(NC(=O)Nc3ccccc3)cc2CC1=O,inactive: 1.02
9,CCC(=O)N(C)C[C@@H]1Oc2ncc(C#C[C@H](C)O)cc2C(=O)N([C@@H](C)CO)C[C@@H]1C,inactive: 1
10,CCCNC(=O)N1C[C@H]2[C@@H](c3ccccc31)[C@H](CO)N2C(=O)CN1CCOCC1,inactive: 1.03
11,CCCN(C)C[C@H]1OCCCC[C@H](C)Oc2ccc(NC(=O)CCC(F)(F)F)cc2C(=O)N([C@H](C)CO)C[C@H]1C,inactive: 0.957
12,C[C@@H]1CCCCO[C@@H](CN(C)C(=O)Nc2cccc3ccccc23)[C@@H](C)CN([C@H](C)CO)C(=O)c2cc(NS(=O)(=O)c3cn(C)cn3)ccc2O1,inactive: 0.99
13,C[C@@H]1CN([C@@H](C)CO)C(=O)c2cc(NS(=O)(=O)c3ccc(Cl)cc3)ccc2O[C@@H](C)CCCCO[C@@H]1CN(C)Cc1ccc2c(c1)OCO2,inactive: 0.946
14,C[C@H]1CN([C@@H](C)CO)C(=O)c2cc(NC(=O)Nc3ccc(C(F)(F)F)cc3)ccc2O[C@H]1CN(C)Cc1ccc(Oc2ccccc2)cc1,inactive: 0.989
15,C[C@@H]1CN([C@@H](C)CO)C(=O)c2cc(NC(=O)CCN3CCOCC3)ccc2O[C@@H]1CN(C)Cc1ccc2c(c1)OCO2,inactive: 1.02
16,Cc1ccc(S(=O)(=O)N(C)C[C@@H]2OCCCC[C@@H](C)Oc3ccc(NC(=O)CCCCCC(=O)Nc4ccccc4N)cc3C(=O)N([C@H](C)CO)C[C@@H]2C)cc1,inactive: 0.978
17,COCC#Cc1ccc2c(c1)O[C@H](CN(C)C(=O)Nc1ccccc1F)[C@@H](C)CN([C@@H](C)CO)S2(=O)=O,inactive: 1.01
18,CN(C)CCCN1c2ccccc2Sc2ccc(C(F)(F)F)cc21.Cl,inactive: 0.71
19,C[C@@H]1CNC(=O)CO1,inactive: 0.968
20,Cc1ccc(S(=O)(=O)N(C)C[C@H]2Oc3ccc(NS(=O)(=O)c4ccccc4)cc3CC(=O)N([C@@H](C)CO)C[C@@H]2C)cc1,inactive: 0.989

row,SMILES,relative growth
1,COc1nsnc1N1CCOCC1,inactive: 0.976
2,CCNC(=O)C[C@@H]1CC[C@H]2[C@H](COc3ccc(NS(=O)(=O)c4ccccc4C)cc3C(=O)N2C)O1,inactive: 0.981
3,Cc1ccc(S(=O)(=O)Nc2ccc3c(c2)C(=O)N([C@H](C)CO)C[C@H](C)[C@@H](CN(C)S(C)(=O)=O)O3)cc1,inactive: 1.01
4,C[C@H](CO)N1C[C@H](C)[C@H](CN(C)S(C)(=O)=O)OCCCC[C@H](C)Oc2ccc(NS(C)(=O)=O)cc2C1=O,inactive: 0.959
5,CC(C)NC(=O)Nc1ccc2c(c1)C(=O)N([C@H](C)CO)C[C@H](C)[C@H](CN(C)S(C)(=O)=O)OCCCC[C@H](C)O2,inactive: 0.981
6,C[C@H](CO)N1C[C@H](C)[C@H](CN(C)S(=O)(=O)c2ccc(F)cc2)Oc2ccc(NC(=O)c3ccncc3)cc2CC1=O,inactive: 0.973
7,C[C@@H]1CN([C@@H](C)CO)C(=O)Cc2cc(NC(=O)Nc3ccc(C(F)(F)F)cc3)ccc2O[C@@H]1CN(C)Cc1ccc(C(=O)Nc2ccccc2N)cc1,inactive: 1
8,COc1ccc(NC(=O)N(C)C[C@@H]2OCCCC[C@H](C)Oc3ccc(NC(=O)c4ccncc4)cc3C(=O)N([C@H](C)CO)C[C@H]2C)cc1,inactive: 0.987
9,COc1ccc(C#Cc2cnc3c(c2)C(=O)N([C@H](C)CO)C[C@H](C)[C@H](CN(C)S(=O)(=O)c2ccc(C#N)cc2)O3)cc1OC,inactive: 1.04
10,Cl.Clc1cccc(Cl)c1N=C1NCCN1,inactive: 1.21
11,Clc1cc(Cl)cc(Oc2nc(-c3ccccc3)ns2)c1,inactive: 0.97
12,COc1ccc(NC(=O)Nc2ccc3c(c2)C(=O)N([C@@H](C)CO)C[C@H](C)[C@@H](CN(C)S(=O)(=O)c2ccc(F)cc2)OCCCC[C@@H](C)O3)cc1,inactive: 1
13,C[C@@H]1CN([C@@H](C)CO)C(=O)c2cc(NS(=O)(=O)c3ccc(Cl)cc3)ccc2O[C@@H](C)CCCCO[C@@H]1CN(C)C(=O)Nc1ccccc1,inactive: 1.03
14,O=C1CN(C(=O)c2ccccc2)C(=S)N1,inactive: 1.02
15,C=CCC[C@@H](Cc1ccc(F)cc1)C(=O)OC[C@@H](Cc1ccccc1)NC(=O)[C@H](CC=C)CC(=O)N[C@@H](CO)Cc1ccccc1,inactive: 1.03
16,O=C(NCC[C@@H]1CC[C@H](NS(=O)(=O)c2cccc(F)c2)[C@@H](CO)O1)C1CC1,inactive: 0.987
17,Cc1ccc(S(=O)(=O)Nc2ccc3c(c2)C(=O)N([C@@H](C)CO)C[C@H](C)[C@@H](CN(C)Cc2ccccc2)OCCCC[C@@H](C)O3)cc1,inactive: 0.983
18,N[C@@H](CSCc1ccccc1Cl)C(=O)O,inactive: 0.968
19,O=C(O)CCN1CCCCCC1=O,inactive: 1.01
20,Cc1ccc(S(=O)(=O)N(C)C[C@@H]2OCCCC[C@@H](C)Oc3ccc(NS(=O)(=O)c4ccc(Cl)cc4)cc3C(=O)N([C@H](C)CO)C[C@H]2C)cc1,inactive: 1.01
